The assay concerns L1210 leukemia ip in BDF1 mice, survival T/C. Description: NCI In Vivo Anticancer Drug Screen. Data for tumor model L1210 Leukemia (intraperitoneal) in B6D2F1 (BDF1) mice. Particulars: endpoint: mean survival time, higher = longer survival.

Inconclusive results and toxic doses are left out. A number of entries come with more than one value. This list holds those alone. There may be further records. Values given together are repeats in other runs, samples, wells, individuals or studies.

Consider `ClC(c1ccccc1)C1(Br)C=c2ccccc2=C1` (configuration not stated), for which the T/C (dose: 100.0 mg/kg/injection, schedule: Q04DX003 (ip), vehicle: Klucel (hydroxypropylcellulose) (HPC)) is 94 % of control and 171 % of control. Regarding `CN(N=O)C(N)=O`, the T/C is 112 % of control and 163 % of control (dose: 14.0 mg/kg/injection, schedule: Q01DX Z (sc), vehicle: saline); 120 % of control and 166 % of control (dose: 21.0 mg/kg/injection, schedule: Q01DX Z (sc), vehicle: saline). Consider `O=C(Cl)c1cccc2c([N+](=O)[O-])cccc12`, for which the T/C (dose: 50.0 mg/kg/injection, schedule: Q01DX001 (ip), vehicle: other) is 94 % of control, 106 % of control, 168 % of control. `CCOC(=O)C(Cc1ccc(N(CCCl)CCCl)cc1)NC=O` (configuration not stated): the T/C (dose: 300.0 mg/kg/injection, schedule: Q01DX001 (ip), vehicle: carboxymethylcellulose (CMC)) was 114 % of control and 170 % of control. For `Cc1ccc(S(=O)(=O)Cl)cc1C(=O)O`, the T/C (dose: 50.0 mg/kg/injection, schedule: Q01DX001 (ip), vehicle: saline with Tween-80) was 87 % of control, 96 % of control, 152 % of control.

As for `O=P(N1CCCC1)(N1CC1)N1CC1`, for the setting “dose: 1.0 mg/kg/injection, schedule: Q01DX Z (ip), vehicle: saline”, the T/C is 97 % of control and 184 % of control.

The record behind these values is PubChem BioAssay AID248 (DTP/NCI, 2004).
